This passage reports binding signal results from PMC12136788.

Sequences and labels used below:
T1: UNK ZnF1-3 (human, UniProt Q9C0B0 31-174)
T1 sequence: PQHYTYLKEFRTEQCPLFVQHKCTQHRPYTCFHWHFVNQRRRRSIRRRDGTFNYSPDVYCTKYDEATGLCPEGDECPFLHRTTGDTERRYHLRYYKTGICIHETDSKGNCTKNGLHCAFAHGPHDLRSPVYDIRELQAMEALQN

B1: chr2:114393739:114393740:-_ENSMUSG00000057147_ENSMUST00000102542|mus_hu|FALSE|FALSE (ssRNA)
RNA: GGGAGUUCUACAGUCCGACGAUCGUUAGAUGAUAUCAUCUCUCUGAGCAAAUCUUCCUGGUUUCUCUGCCAAAGAUAAGCUAAAGGCUGGAGAUUAAGCCUUUUACACACAUUUUCCACUCGAAUACGCUGAUAGUCAGAAAGCAACAGAGGAUUGAGCAUCA
B2: chr1:60041781:60041782:+_ENSMUSG00000041040_ENSMUST00000036540|mus_hu|mus_mus_mus_hu_False|28_38 (ssRNA)
RNA: GGGAGUUCUACAGUCCGACGAUCAAGUUUACAAUAGUAAAGUAAAUGCAGUAGUGGCAAAUUUUCUUUUAUUUUCCUUCACAAAAGAAAAUCUUUAGAUCUCAGUUCAAUCCCAGAACAUAGUGAAAGCUAUAAAUUCUGACUCAACAGAGGAUUGAGCAUCA
B3: chr1:163112212:163112213:-_ENSG00000143248_ENST00000313961|hu_hu|hu_hu_hu_mus_False|58_88 (ssRNA)
RNA: GGGAGUUCUACAGUCCGACGAUCUUUUAUUAUCAGUAAGAGUGAGUCACAUAGUACGCAAAGUAUUGGAUACAAUAUUCUAAAGAUAAACACUAUUGGUCCAGAAUUUAAAACUUUAUGAGCGAAGUGCUGGCACAGGACUUACAACAGAGGAUUGAGCAUCA
B4: chr18:31598358:31598359:-_ENSMUSG00000024261_ENSMUST00000025110|mus_mus|FALSE|FALSE (ssRNA)
RNA: GGGAGUUCUACAGUCCGACGAUCAAAUACAUUUUCAUCGAAUUUACAAACACUGUGAUAUCAAACACAUUCUCAAAAAUGCUAAAGCACUGACACAAAACUUGACUCAAAGGUAAAAUUUCCAGUAGACAUUAUCUCUAACUUCAACAGAGGAUUGAGCAUCA
B5: chr11:70698419:70698420:+_ENSMUSG00000020817_ENSMUST00000076270|mus_hu|motif|central (ssRNA)
RNA: GGGAGUUCUACAGUCCGACGAUCUUUCAUAACAGCCUGAAGUGAAGCAACUUCUUCUCUCCACUGUCUUUUCACUUCAUCGGUAGCUUCUUGCUUGGUGUUCUCAGAGACUGUGGCAAUCGCCUUAAUAUUCUCCAUCUCUGCCAACAGAGGAUUGAGCAUCA
B6: chr1:225611761:225611762:-_ENSG00000143815_ENST00000272163|hu_mus|hu_hu_hu_mus_True|18_18 (ssRNA)
RNA: GGGAGUUCUACAGUCCGACGAUCCCAGGCCAUCGGCCUCUGACCACUUCACCCUCAACAAACUUCCUACUUGGCAUUUUCUAAAAUUAGUCUGGCCGCGCUCCGGCGGGAACUCCAGACGGCUCCCGACAGUCACCAGCAGCCCAACAGAGGAUUGAGCAUCA

The other results are listed elsewhere or left out.

The experiment concerns the target T1, UNK ZnF1-3. Description: nsRBNS (natural sequence RNA bind-n-seq); RBNS binding buffer (assumed for nsRBNS): 25 mM Tris pH 7.5, 150 mM KCl, 3 mM MgCl2, 0.01% Triton X-100, 500 ug/ml BSA, 20 U/ml SUPERase-In, 4 C; UNK is unkempt and MSI1 is Musashi-1; names of the RNAs are library labels; protein concentration not given here; high values mean tight binding.
Molecule B1 showed a binding signal of 1.12 enrichment R.
Then B2, with 0.457 enrichment R.
In turn, B3 had a binding signal of 1.39 enrichment R.
With B4, the binding signal stood at 0.673 enrichment R.
In the case of B5 it was 0.293 enrichment R; in that of B6, 1.27 enrichment R.
